Assay results from PubChem BioAssay AID1159614 (National Center for Advancing Translational Sciences (NCATS), 2016).
In all, about 45,000 compounds went through this assay and about 65 (0.1%) were called active. Calls follow the shape of the dose curve; as a rule, active = well fitted activation curve with a large enough effect; inconclusive = small, poorly fitted or top-dose-only effect; inactive = no such curve, though single readings can be large or run the other way. Some of the results follow.

Biological target: Galactocerebrosidase (Homo sapiens) (UniProt P54803)
Assay: A Novel Cell-Based Assay to Identify Small Molecules for B -Galactocerebrosidase; also: 0% is about no effect; nearly all actives have a fitted effect of over 65% in size
Conditions: 145M-Twi-hGALC-G270D cells (Twitcher mouse brain line with human GALC G270D), HMU-beta-Gal fluorescence, 48 h; series mostly up to 57.5 µM; activation: at the top concentration
In short: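 Brain-derived Twitcher mouse 145M-Twi cells stably expressing human GALC-G270D or wild-type GALC, treated live, then residual GALC activity read by fluorescence of HMU-b-Gal substrate (0.1 mM final) in citrate-phosphate buffer pH 5.2 with sodium taurocholate. Signal increase indicates enhancement.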

UniProt P54803, sequence (P54803 whole entry, looked up): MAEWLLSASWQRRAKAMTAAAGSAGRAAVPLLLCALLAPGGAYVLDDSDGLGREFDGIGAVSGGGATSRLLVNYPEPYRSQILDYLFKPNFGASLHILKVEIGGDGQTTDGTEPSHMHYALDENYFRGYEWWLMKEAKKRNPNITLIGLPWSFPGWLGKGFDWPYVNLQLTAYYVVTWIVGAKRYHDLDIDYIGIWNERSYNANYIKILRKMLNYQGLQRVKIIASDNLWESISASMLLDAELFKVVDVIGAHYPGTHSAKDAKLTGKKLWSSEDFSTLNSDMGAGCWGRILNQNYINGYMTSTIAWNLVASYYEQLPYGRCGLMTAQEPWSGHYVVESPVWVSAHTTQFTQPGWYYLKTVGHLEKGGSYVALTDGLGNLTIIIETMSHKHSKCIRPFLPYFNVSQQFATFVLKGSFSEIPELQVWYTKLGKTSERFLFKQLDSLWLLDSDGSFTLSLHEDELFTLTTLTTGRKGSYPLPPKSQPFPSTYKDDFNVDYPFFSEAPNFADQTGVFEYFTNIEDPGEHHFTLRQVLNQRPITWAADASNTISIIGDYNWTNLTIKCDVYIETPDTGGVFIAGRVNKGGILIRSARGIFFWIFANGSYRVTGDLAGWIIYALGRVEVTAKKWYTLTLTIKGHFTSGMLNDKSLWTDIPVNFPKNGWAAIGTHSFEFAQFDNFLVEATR

SMILES	activation
COc1ccc(-c2csc3nc(-c4ccc(C)cc4)oc(=O)c23)cc1OC	inactive: -12.3%
O=c1c2sc3ccccc3c2n(Cc2ccc(Cl)cc2)c(=O)n1Cc1ccco1	inactive: -10.7%
Cc1ccc(NC(=O)CCc2nc3cccnc3n2-c2ccccc2)cc1Cl	inactive: -20.4%
Cc1ccc(N(Cc2cccs2)C(=O)c2ccccc2[N+](=O)[O-])cc1	inactive: 10%
COc1ccc(CCN(C)CCCC(C#N)(c2cc(OC)c(OC)c(OC)c2)C(C)C)cc1OC (stereo not drawn)	inactive: -6.79%
COc1ccc(CNC(=O)CC2Oc3ccc(C)cc3NC2=O)cc1 (stereo not drawn)	inactive: -16.9%
COc1cccc(CNC(=O)c2cc(=O)[nH]c3ccc(S(=O)(=O)N4CCCC4)cc23)c1	inactive: 3.33%
CCOc1ccc(CCNC(=O)c2nn(C)c3c2CSc2ccc(C)cc2-3)cc1OCC	inactive: -48%
COc1ccc(CCNc2nc(SCc3cccc(Cl)c3)nc3ccccc23)cc1OC	inactive: -4.65%
Cc1cccc(Cn2c(CN3CCCC(C)C3)nc3c2c(=O)n(C)c(=O)n3C)c1 (stereo not drawn)	inactive: -12.3%
Cc1ccc(S(=O)(=O)N2CCc3cc(C(=O)Nc4c(C)cccc4C(C)C)ccc32)cc1	inactive: -12.1%
COC(=O)c1cc2oc3ccccc3c2n1CC(=O)Nc1ccc(F)c(Cl)c1	inactive: 5.69%
COc1cccc(CC(=O)Nc2ccc3nc(Nc4cccc(C(F)(F)F)c4)cc(C)c3c2)c1	inactive: -0.245%
Clc1ccc2nc(-c3cccs3)c(Nc3ccc4c(c3)OCCO4)n2c1	inactive: -11.6%
CCOC(=O)c1cc(OC(=O)c2cc(OC)cc(OC)c2)n(-c2ccccc2)n1	inactive: -2.78%
Cc1ccc(Cl)cc1NC(=O)Cn1c(SCC(=O)NCc2ccccc2)nc2ccccc21	inactive: -19.3%
CCOC(=O)c1c(NC(=O)CSc2cn(CCNC(=O)c3ccc(OCC)cc3)c3ccccc23)sc2c1CCC2	inactive: -6.15%
CCc1nonc1NC(=O)c1oc2ccc(Cl)cc2c1C	inactive: -4.75%
COCCCNC(=O)c1ccc(-n2c(-c3ccccc3)cc3c2CCCCC3)cc1	inactive: -15.2%
CC1Cc2cc(S(=O)(=O)NCc3ccccc3)ccc2N1C(=O)C1CCC1 (stereo not drawn)	inactive: -17.2%

SMILES	activation
CC1=C(C(=O)OC2CCCCCC2)C(c2ccc(Cl)cc2Cl)CC(=O)N1 (stereo not drawn)	inactive: -4.04%
Cc1ccc(NC(=O)c2cnc3cc(C)ccn3c2=O)c(C)c1	inactive: -19.5%
CC1(C)S[C@@H]2[C@H](NC(=O)Cc3ccccc3)C(=O)N2[C@H]1C(=O)O (tested in a mixture with another compound)	inactive: -25.3%
COc1c2occc2c(OC)c2c(=O)cc(C)oc12	inactive: -16.2%
CCCCSc1nc(-c2cccc(OC)c2)nc2c1Cc1c(CO)cnc(C)c1O2	inactive: -12.7%
CCc1nonc1NC(=O)c1oc2cc(C)c(C)cc2c1C	inactive: -24.7%
Cc1ccc(-c2cc(NC(=O)c3cccc(C)c3)on2)cc1	inactive: -18.8%
Cc1c(Cl)cccc1NC(=O)c1oc2ccc(S(=O)(=O)N3CCC4(CC3)OCCO4)cc2c1C	inactive: -8.74%
O=S(=O)(NCc1ccc(F)cc1)c1ccc2[nH]c3c(c2c1)CCCC3	inactive: -8.38%
CC(C)C[C@H](NC(=O)CNC(=O)[C@H](Cc1ccc(O)cc1)NC(=O)[C@H](CO)NC(=O)[C@H](Cc1c[nH]c2ccccc12)NC(=O)[C@H](Cc1cnc[nH]1)NC(=O)[C@@H]1CCC(=O)N1)C(=O)N[C@@H](CCCN=C(N)N)C(=O)N1CCC[C@H]1C(=O)NCC(N)=O (stereo in doubt)	inactive: -10.2%
CCC(=O)Nc1ccc(CC)cc1-c1nc2ccccc2n(CC(=O)c2ccc(OC)cc2)c1=O	inactive: -25.1%
CC1CCCCN1C(=O)CN1CCSc2ccccc21 (stereo not drawn)	inactive: -0.723%
COc1cccc(-n2c(SCC(N)=O)nc3c(oc4ccccc43)c2=O)c1	inactive: -1.88%
CCc1ccccc1NC(=O)CCCn1c(=O)c2cccn2c2ccccc21	inactive: -4.98%
CCc1cccc(-n2c(=O)c3cccnc3n2CC(=O)Nc2ccc(OC)c(Cl)c2)c1	inactive: -19.2%
COc1ccc(NC(=O)C2Cc3ccccc3CN2S(=O)(=O)c2ccccc2)cc1OC (stereo not drawn)	inactive: -6.79%
COc1ccc(C(=O)Oc2ccc(C(c3c(C)[nH][nH]c3=O)c3c(C)[nH][nH]c3=O)cc2)cc1	inactive: -11.1%
O=C1CN(C(=O)Cc2ccccc2)C(c2ccc(F)cc2)c2cc(Br)ccc2N1 (stereo not drawn)	inactive: -27.8%
Cc1cc(S(=O)(=O)Nc2ccc3oc4c(c3c2)CCCC4)ccc1Cl	inactive: -14.9%
NC(=O)NS(=O)(=O)c1ccc(Cl)cc1	inactive: -14.7%

SMILES	activation
CC(C)c1ccc(N2C(=O)N(Cc3cccc([N+](=O)[O-])c3)c3ccccc3S2(=O)=O)cc1	inactive: -13.1%
CCOc1ccc(NC(=O)[C@@H](c2ccccc2)N2Cc3ccccc3C2=O)cc1	inactive: -9.22%
COc1ccc(NS(=O)(=O)c2ccc3c(c2)[C@H]2C=CC[C@H]2[C@@H](c2ccc(C(=O)O)cc2)N3)cc1	inactive: -21.8%
Cc1noc(-c2ccc(-c3noc(-c4ccc([N+](=O)[O-])c(C)c4)n3)cc2)n1	inactive: -20.9%
Cc1ccc(S(=O)(=O)N2CCc3cc(C(=O)Nc4ccc(Cl)cc4C)ccc32)cc1	inactive: -11.4%
CCOc1ccc(CCNCc2c(C(=O)O)c(C)n(Cc3ccccc3F)c2C)cc1	inactive: -3.46%
CCCc1nn2c(=O)cc(COC(=O)c3ccc(NC(=O)COc4ccccc4F)cc3)nc2s1	inactive: -11.3%
O=S(=O)(NCCc1csc2nc(-c3ccccc3)nn12)c1ccc(Oc2ccccc2)cc1	inactive: -9.73%
COc1cc(C2C(C(=O)Nc3ccccc3C)=C(C)Nc3nc(SCc4cc(C)ccc4C)nn32)ccc1O (stereo not drawn)	inactive: -18.5%
CCN(CC)c1ccc(NC(=O)CCc2c(C)nc3ncnn3c2C)c(C)c1	inactive: 21.3%
Cc1cccn2c(=O)c(C(=O)N3CCN(c4ccc(Cl)cc4)CC3)cnc12	inactive: -3.27%
COc1ccc(Cl)cc1NC(=O)Cn1nnc2sc(-c3ccccc3)cc2c1=O	inactive: -10.7%
CCOC(=O)c1cc2c(=O)n3ccccc3nc2n(Cc2ccco2)c1=NC(=O)c1cccc(Br)c1	inactive: 1.32%
Cc1ccc(Cl)cc1N1CCN(C(=O)c2noc3c2CCCC3)CC1	inactive: 2.97%
Cc1ccc(-n2nnnc2CNC(=O)C2CC(=O)N(c3ccccc3)C2)cc1C (stereo not drawn)	inactive: -10.3%
CCc1cccc(C)c1NC(=O)c1cc2ccccc2o1	inactive: -34.8%
Cn1cc(S(=O)(=O)c2ccccc2)c(=O)c2cc(F)c(N3CCCC3)cc21	inactive: -16.7%
O=C(NCc1ccccc1)c1ccc(CSc2nc3cccnc3n2Cc2ccccc2)cc1	inactive: -5.87%
